Laboratory results taken from PubChem BioAssay AID624417 (National Center for Advancing Translational Sciences (NCATS), 2012).
The whole screen tested about 410,000 compounds, of which about 6,400 (1.6%) were called active. The shares of active, inactive and inconclusive entries below differ from those in the screen. Calls come from the whole dose curve; as a rule, active = well fitted inhibition curve with a large enough effect; inconclusive = small, poorly fitted or top-dose-only effect; inactive = no such curve, though single readings can be large or run the other way. No potency is given beside an inconclusive call; the fits are too rough.

These compounds were tested against Glucagon-like peptide 1 receptor (Homo sapiens) (UniProt P43220) (assay: qHTS of GLP-1 Receptor Inverse Agonists (Inhibition Mode)). Conditions: HEK293 GLP-1R CRE-luciferase, luminescence, 24 h, GLP-1R form is constitutively active; activity change, negative = inhibition: at 38.3 µM (top of the series) unless noted.
Sequence of UniProt P43220 (P43220 whole entry, looked up): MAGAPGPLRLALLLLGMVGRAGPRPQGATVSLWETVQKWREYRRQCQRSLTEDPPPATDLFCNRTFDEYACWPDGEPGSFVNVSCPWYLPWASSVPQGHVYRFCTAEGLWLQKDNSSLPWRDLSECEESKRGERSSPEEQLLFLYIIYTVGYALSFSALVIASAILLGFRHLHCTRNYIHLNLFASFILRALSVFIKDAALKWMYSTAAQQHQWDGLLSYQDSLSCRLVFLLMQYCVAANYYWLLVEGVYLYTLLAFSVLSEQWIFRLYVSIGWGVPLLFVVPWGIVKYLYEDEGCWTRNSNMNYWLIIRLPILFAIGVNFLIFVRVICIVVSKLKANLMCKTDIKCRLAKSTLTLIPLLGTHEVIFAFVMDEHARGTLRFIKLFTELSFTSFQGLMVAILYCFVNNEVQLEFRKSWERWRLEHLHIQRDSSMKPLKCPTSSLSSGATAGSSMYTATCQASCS
Summary of the method: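 Cells are plated, allowed 12 hours at 37 deg C, then treated with compounds for 24 hr before luciferase detection reagent is added and luminescence is read after 12 min at room temperature. The HEK293 line carries constitutively active GLP-1R with a cAMP-responsive reporter.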
% is set by controls: 0 for no effect and ±100 for the full control effect; potency is the fitted concentration of half-maximal effect; tags give direction and shape of the fitted curve.
Note: nearly all actives have a fitted effect of over 55% in size.

Structure (SMILES)	Potency	activity change, negative = inhibition
O=C(Nc1nc2c(s1)C(=O)CCC2)c1ccccc1	inconclusive [inhibitor, single point]	–
CSc1cc(CS(=O)(=O)c2ccccc2)nc(-c2ccccc2)n1	inconclusive [inhibitor, partial curve, poor fit]	–
CC1(C(=O)NCc2cccc3ccccc23)CCN1Cc1cc2ccccc2o1 (centres undefined)	inconclusive [inhibitor, partial curve, poor fit]	–
O=C(NCC1CCCO1)c1c(O)c2cccc3c2n(c1=O)CC3 (centres undefined)	inconclusive [inhibitor, full curve, poor fit]	–
CC(C)C(NC(=O)c1ccc(C(C)(C)C)cc1)C(=O)NC1=NCCS1 (centres undefined)	inconclusive [inhibitor, partial curve, poor fit]	–
CCOC(=O)C1CCN(C(=O)C(C)Sc2ccc(Cl)cc2)CC1 (centres undefined)	inconclusive [inhibitor, partial curve]	–
Cn1c(SCc2cc(=O)c3cc(Cl)ccc3[nH]2)nnc1-c1ccccc1	–	inactive: 0.74%
S=c1[nH]nc(-c2ccc(Br)o2)n1Cc1ccccc1	inconclusive [inhibitor, single point]	–
CC(C)(C)c1ccc(-n2ncc3c2CCCC3NC(=O)CCN2CCCCC2=O)cc1 (centres undefined)	inconclusive [inhibitor, partial curve, poor fit]	–
C/C(=N/NC(=O)c1cc2ccccc2cc1O)c1ccco1	inconclusive [inhibitor, single point]	–
CCCCCCCCC(=O)N/N=C(\C)c1ccc(O)cc1O	inconclusive [inhibitor, single point]	–
CCCCN(CC)CCCNC(=O)c1cc2c(=O)n(CC)c3ccccc3c2s1	active: 2.82 µM	–
Cn1c(=O)c(=O)n(C)c2cc(C(=O)NCc3ccccc3Cl)ccc21	–	inactive: 9.94%
O=C(Cn1nc(-c2ccc(Cl)cc2)c2ccccc2c1=O)Nc1cccc(C(F)(F)F)c1	inconclusive [inhibitor, partial curve, poor fit]	–
COc1ccc(-n2ncc(C(C)NS(=O)(=O)c3ccc(C)s3)c2C)cc1 (centres undefined)	inconclusive [inhibitor, single point]	–
COC(=O)c1scc(-c2ccc(C)cc2)c1S(=O)(=O)N1CCN(c2ccc(C)cc2C)CC1	inconclusive [inhibitor, single point]	–
O=C(CCC(=O)Nc1ccccc1Cl)NNC(=O)COc1ccc([N+](=O)[O-])cc1	inconclusive [inhibitor, single point]	–
OCC1(Cc2ccccc2)CCCN(Cc2ccc3c(c2)OCCO3)C1 (centres undefined)	inconclusive [inhibitor, partial curve, poor fit]	–
CC1CCN(S(=O)(=O)c2ccc3nc(NCc4ccccc4)ccc3c2)CC1	inconclusive [inhibitor, single point]	–
CC(C)(CNC(=O)Cc1ccc(Cl)cc1Cl)N1CCCCC1	inconclusive [inhibitor, partial curve, poor fit]	–
Fc1ccc(C2c3[nH]c4ccccc4c3CCN2Cc2ccoc2)cc1 (centres undefined)	inconclusive [inhibitor, partial curve, poor fit]	–
CC(Oc1ccc(Cl)cc1)c1ccn[nH]1 (centres undefined)	inconclusive [inhibitor, partial curve, poor fit]	–

Structure (SMILES)	Potency	activity change, negative = inhibition
O=C(CC1C(=O)NCCN1C(=O)Nc1ccccc1)Nc1cc(Cl)cc(Cl)c1 (centres undefined)	inconclusive [inhibitor, partial curve, poor fit]	–
COc1ccc(CN(C)C(=S)Nc2ccc(OC(F)F)cc2)cc1	inconclusive [inhibitor, single point]	–
O=C(/C=C/c1ccco1)Nc1nc(-c2ccccn2)cs1	inconclusive [inhibitor, single point]	–
c1ccc(-n2nnc3c(N4CCOCC4)ncnc32)cc1	inconclusive [inhibitor, full curve]	–
O=C(CN1C(=O)NC2(CCCc3ccccc32)C1=O)c1ccc(Br)cc1 (centres undefined)	inconclusive [inhibitor, partial curve, poor fit]	–
COc1ccc(NS(=O)(=O)c2ccc(-c3cnc(C4CC4)o3)cc2)cc1Cl	inconclusive [inhibitor, partial curve, poor fit]	–
Cc1cc(Br)ccc1NC(=O)CN(C)C(=O)C1CCN(C(=O)c2ccc(Cl)cc2)CC1	inconclusive [inhibitor, partial curve, poor fit]	–
Cc1ccc(O)c(C2=NNC(c3ccc(Cl)cc3)C2)c1 (centres undefined)	inconclusive [inhibitor, single point]	–
Cc1ccc(Cl)cc1N1CCN(C(=O)c2ccc(CS(=O)c3ccccc3)o2)CC1 (centres undefined)	inconclusive [inhibitor, partial curve, poor fit]	–
Fc1ccc(-c2nc3ccc(Br)cn3c2Cc2cccc(Cl)c2)cc1	inconclusive [inhibitor, single point]	–
COc1ccc(/C=N/NC(=O)c2cccc3ccccc23)c(OC)c1OC	inconclusive [inhibitor, partial curve, poor fit]	–
COc1c(Cl)cc(Cl)cc1/C=C/C(=O)c1ccc(NC(=O)c2cccs2)cc1	–	inactive: 0%
COc1ncccc1-c1nnn(-c2ccc(C)cc2)n1	–	inactive: 22.9%
O=C(CCSCc1cnn(-c2ccccc2)c1-n1cccc1)NCc1ccccc1Cl	inconclusive [inhibitor, partial curve, poor fit]	–
CCOC(=O)/C(=N\Nc1cccc(C(F)(F)F)c1)N1CCOCC1	inconclusive [inhibitor, full curve]	–
CCOC(=O)C1CCN(C(=O)c2ccccc2)C(CC)C1=O (centres undefined)	inconclusive [inhibitor, single point]	–
CCn1c(C)nc2cc(C(=O)N3N=C(CCOC)CC3(O)C(F)(F)F)ccc21 (centres undefined)	inconclusive [inhibitor, full curve]	–
COc1ccc(Br)cc1CN1CCN(C(=O)c2ccc(F)cc2)CC1	inconclusive [inhibitor, single point]	–
NC(Cc1ccc(Cl)cc1)c1csc(NC(=O)Nc2ccccc2)n1 (centres undefined)	inconclusive [inhibitor, single point]	–
COc1ccc(-c2cnc(OC(C)(C)C)nc2OC(C)(C)C)cc1OC	inconclusive [inhibitor, single point]	–
COc1ccc(C2c3ccc4ccccc4c3Oc3ncn(CCCO)c(=N)c32)cc1 (centres undefined)	active: 5.62 µM	–
Cc1ccc(C)c(S(=O)(=O)NCC(c2ccco2)N2CCc3ccccc3C2)c1 (centres undefined)	active: 11.2 µM	–

Structure (SMILES)	Potency	activity change, negative = inhibition
CCn1c(C(=O)NCc2ccccc2Br)cc2oc3ccccc3c21	inconclusive [inhibitor, full curve]	–
CN(C)CC#CCOC(c1ccccc1)c1ccccc1	inconclusive [inhibitor, partial curve, poor fit]	–
Cc1c(C(=O)N(Cc2ccccc2)C(C)C)cnn1-c1ccccc1	inconclusive [inhibitor, single point]	–
CN1CCN(C(=O)c2ccc3c(c2)NC(=O)/C(=C/c2ccccc2)S3)CC1	inconclusive [inhibitor, partial curve, poor fit]	–
Cc1ccc(C)c(S(=O)(=O)N2CCN(C(=O)CCc3c[nH]c4ccccc34)CC2)c1	inconclusive [inhibitor, single point]	–
CCCNC(=O)Cn1c(=O)c2cccn2c2cccnc21	–	inactive: -26.8%
Cc1cnc(C=O)c2cccc([N+](=O)[O-])c12	–	inactive: -0.945%
CC(=O)Oc1ccc(OC(C)=O)c(SCCCCCN2CCOCC2)c1	inconclusive [inhibitor, single point]	–
CCOC(=O)C1CCN(C(=O)COc2ccc(Cl)cc2Cl)CC1	inconclusive [inhibitor, single point]	–
Cc1cccc(-c2n[nH]c(=S)n2Cc2ccccc2)c1	inconclusive [inhibitor, single point]	–
COc1cc2[nH]c(C(=O)NCc3ccccc3)cc2c(OC)c1OC	–	inactive: 7.48%
C=C1C(=O)[C@]23C[C@H]1CCC2[C@@]1(C)C(C[C@@H]3O)[C@](C)(C(=O)OC)CC[C@@H]1OC(C)=O (some centres undefined)	inconclusive [inhibitor, full curve, poor fit]	–
COCCn1nnnc1C(c1cccs1)N1CCN(c2cccc(C(F)(F)F)c2)CC1 (centres undefined)	inconclusive [inhibitor, single point]	–
Cc1[nH]nc(-c2ccc(O)cc2O)c1-c1nc2ccccc2s1	inconclusive [inhibitor, single point]	–
O=C1C(=Cc2ccccc2Cl)CCc2ccccc21	inconclusive [inhibitor, partial curve, poor fit]	–
CC1(Oc2ccc(Cl)cc2)CCN(Cc2cccn2-c2nccs2)C1 (centres undefined)	–	inactive: -4.62%
COc1cccc(CN(C)C(=O)c2ccc(C)c(S(=O)(=O)N3CCCCC3)c2)c1	inconclusive [inhibitor, single point]	–
O=C(Nc1ncc2c(n1)CC(c1ccc(Cl)cc1)CC2=O)c1ccco1 (centres undefined)	inconclusive [inhibitor, partial curve]	–
CC1=C(C(=O)Nc2ccccc2C(=O)NC2CCCCC2C)SCCO1 (centres undefined)	active: 10 µM	–
COc1ccccc1NC(=O)Nc1nc(C(N)CC(C)C)cs1 (centres undefined)	inconclusive [inhibitor, partial curve, poor fit]	–
